Assay results published in article PMC6755125, “The MLL1 trimeric catalytic complex is a dynamic conformational ensemble stabilized by multiple weak interactions” (Nucleic Acids Research, 2019).

Target: T1, RbBP5NTD (N-terminal WD40 β-propeller domain of RbBP5) (human, UniProt Q15291 10-340)
T1 construct: human RbBP5, N-terminal WD40 domain; Vector pET28-MHL; Monomeric in solution by SAXS; The mouse WD40 domain (PDB 5OV3) is said to be 100% identical; also called N-terminal domain of RbBP5; RbBP5 β-propeller domain; source: E. coli, purified by His-tag
Experiment: BLI; Octet Red; GST-tagged MLL_(RBS-SET) on anti-GST biosensors, RbBP5 constructs in solution; PBS, 0.2 mg/ml BSA, 0.1% Tween-20; steady-state analysis
Details: both partners purified

Kd: ~8 µM
B1: MLL1_(RBS-SET) ([…]), GST-tagged (domain or fragment)
chain: not shown
notes: Cloned in the vector pET28GST-LIC (GenBank EF456739 is the vector's id); Detailed procedures are in the Supplementary Data; also called MLL_(RBS-SET); MLL1-GST; source: E. coli, purified by the N-terminal GST-tag; not shown: GST, N-terminal, kept
